Measured values from the supplement of paper PMC11876631.
Substitutions are numbered along the chain they refer to. Names and notes keep the numbering of the source. ± gives the standard deviation of the averaged measurements. Laboratory Escherichia coli strains with one amino-acid change in an essential protein, pooled on minimal glucose agar with carbenicillin or gentamicin at twice the control MIC (plus kanamycin and chloramphenicol for the plasmids), 48 h. Fold change of barcode share against drug-free plates; higher = less susceptible. Active = above 20 in both replicates (the paper's putatively resistant). '<' = one read or none on drug, '>' = one read or none on a drug-free plate. Shares are relative, so most strains fall below 1 when a few take over. Listed are strains with at least 15 reads on both drug-free plates, and hits; most hits rest on fewer reference reads. Replicate rank correlation about 0.5. Edits are read from barcodes.

B1: mukF V35W (protein)
chain: MSEFSQTVPELVAWARKNDFSISLPVDRLSFLLAWATLNGERLDGEMSEGELVDAFRHVSDAFEQTSETIGVRANNAINDMVRQRLLNRFTSEQAEGNAIYRLTPLGIGITDYYIRQREFSTLRLSMQLSIVAGELKRAADAAEEGGDEFHWHRNVYAPLKYSVAEIFDSIDLTQRLMDEQQQQVKDDIAQLLNKDWRAAISSCELLLSETSGTLRELQDTLEAAGDKLQANLLRIQDATMTHDDLHFVDRLVFDLQSKLDRIISWGQQSIDLWIGYDRHVHKFIRTAIDMDKNRVFAQRLRQSVQTYFDEPWALTYANADRLLDMRDEEMALRDEEVTGELPEDLEYEEFNEIREQLAAIIEEQLAVYKTRQVPLDLGLVVREYLSQYPRARHFDVARIVIDQAVRLGVAQADFTGLPAKWQPINDYGAKVQAHVIDKY
B2: mukF V59Q (protein)
chain: B1 chain with W35V, V59Q
B3: mukF V132D (protein)
chain: B1 chain with W35V, V132D
B4: mukF V59P (protein)
chain: B1 chain with W35V, V59P
B5: mukF V132P (protein)
chain: B1 chain with W35V, V132P
B6: mukF V35Q (protein)
chain: B1 chain with W35Q
B7: mukF V132Q (protein)
chain: B1 chain with W35V, V132Q
B8: mukF F31A (protein)
chain: B1 chain with F31A, W35V
B9: mukF V132A (protein)
chain: B1 chain with W35V, V132A
B10: mukF V59A (protein)
chain: B1 chain with W35V, V59A
B11: asd I110Q (protein)
chain: MKNVGFIGWRGMVGSVLMQRMVEERDFDAIRPVFFSTSQLGQAAPSFGGTTGTLQDAFDLEALKALDIIVTCQGGDYTNEIYPKLRESGWQGYWIDAASSLRMKDDAIIQLDPVNQDVITDGLNNGIRTFVGGNCTVSLMLMSLGGLFANDLVDWVSVATYQAASGGGARHMRELLTQMGHLYGHVADELATPSSAILDIERKVTTLTRSGELPVDNFGVPLAGSLIPWIDKQLDNGQSREEWKGQAETNKILNTSSVIPVDGLCVRVGALRCHSQAFTIKLKKDVSIPTVEELLAAHNPWAKVVPNDREITMRELTPAAVTGTLTTPVGRLRKLNMGPEFLSAFTVGDQLLWGAAEPLRRMLRQLA

Molecular target: Escherichia coli (laboratory strain)
Experiment: barcode share on antibiotic plates over drug-free plates; higher = less susceptible
Conditions: antibiotic: carbenicillin; 2× MIC (3.1 µg/mL)
Method: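 A pool of E. coli strains, each edited to carry one amino-acid change in an essential protein, was grown for 48 h on minimal glucose agar with or without antibiotic; strain barcodes were sequenced; mean of two replicates.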

Protein | fold change of barcode share
B1 | 0.269 ± 0.13
B2 | 0.322 ± 0.12
B3 | 0.166 ± 0.009
B4 | 0.918 ± 0.016
B5 | 0.172 ± 0.055
B6 | 0.277 ± 0.053
B7 | 0.308 ± 0.081
B8 | 0.289 ± 0.096
B9 | 0.131 ± 0.027
B10 | 1.19 ± 0.89
B11 | 0.371 ± 0.067

Same assay, conditions: antibiotic: gentamicin; 2× MIC (MIC 0.45 µg/mL)

Protein | fold change of barcode share
B1 | < 0.00975
B2 | < 0.00448
B3 | < 0.0118
B4 | 0.0159 ± 0.0045
B5 | < 0.0104
B6 | < 0.00314
B7 | < 0.0055
B8 | 0.0164 ± 0.012
B9 | < 0.0142
B10 | < 0.00532
B11 | 0.00757 ± 0.0052
